# Measurements as given in the supplement of paper PMC3334620.
# Whole data set: some 33,000 sequences, median “E-score (-0.5 to 0.5)” near -0.053, cut for the highest 2% near 0.37. This is one part of the list.
# Target: Hap1 (UniProt P0CE41)
# Test: PBM E-score (8-mer binding enrichment) (E-score (-0.5 to 0.5)); higher = stronger / more preferred TF binding; most listed sequences are background and not binding sites
# Conditions: protein concentration: 200 nM; construct: GST-DNA-binding domain
# Summary of the method: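 PURExpress in vitro transcription/translation supplied GST-tagged yeast transcription factors, either full-length or DNA-binding domain. Applied at about 100-200 nM to universal all-10-mer Agilent arrays double-stranded by primer extension, the bound protein was detected with fluorescent anti-GST. E-scores, modified Wilcoxon-Mann-Whitney statistics, were given by the Universal PBM Analysis Suite to ungapped eight-base words pooled with their reverse complements after masliner normalisation.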
# Chain of UniProt P0CE41 (P0CE41 whole entry): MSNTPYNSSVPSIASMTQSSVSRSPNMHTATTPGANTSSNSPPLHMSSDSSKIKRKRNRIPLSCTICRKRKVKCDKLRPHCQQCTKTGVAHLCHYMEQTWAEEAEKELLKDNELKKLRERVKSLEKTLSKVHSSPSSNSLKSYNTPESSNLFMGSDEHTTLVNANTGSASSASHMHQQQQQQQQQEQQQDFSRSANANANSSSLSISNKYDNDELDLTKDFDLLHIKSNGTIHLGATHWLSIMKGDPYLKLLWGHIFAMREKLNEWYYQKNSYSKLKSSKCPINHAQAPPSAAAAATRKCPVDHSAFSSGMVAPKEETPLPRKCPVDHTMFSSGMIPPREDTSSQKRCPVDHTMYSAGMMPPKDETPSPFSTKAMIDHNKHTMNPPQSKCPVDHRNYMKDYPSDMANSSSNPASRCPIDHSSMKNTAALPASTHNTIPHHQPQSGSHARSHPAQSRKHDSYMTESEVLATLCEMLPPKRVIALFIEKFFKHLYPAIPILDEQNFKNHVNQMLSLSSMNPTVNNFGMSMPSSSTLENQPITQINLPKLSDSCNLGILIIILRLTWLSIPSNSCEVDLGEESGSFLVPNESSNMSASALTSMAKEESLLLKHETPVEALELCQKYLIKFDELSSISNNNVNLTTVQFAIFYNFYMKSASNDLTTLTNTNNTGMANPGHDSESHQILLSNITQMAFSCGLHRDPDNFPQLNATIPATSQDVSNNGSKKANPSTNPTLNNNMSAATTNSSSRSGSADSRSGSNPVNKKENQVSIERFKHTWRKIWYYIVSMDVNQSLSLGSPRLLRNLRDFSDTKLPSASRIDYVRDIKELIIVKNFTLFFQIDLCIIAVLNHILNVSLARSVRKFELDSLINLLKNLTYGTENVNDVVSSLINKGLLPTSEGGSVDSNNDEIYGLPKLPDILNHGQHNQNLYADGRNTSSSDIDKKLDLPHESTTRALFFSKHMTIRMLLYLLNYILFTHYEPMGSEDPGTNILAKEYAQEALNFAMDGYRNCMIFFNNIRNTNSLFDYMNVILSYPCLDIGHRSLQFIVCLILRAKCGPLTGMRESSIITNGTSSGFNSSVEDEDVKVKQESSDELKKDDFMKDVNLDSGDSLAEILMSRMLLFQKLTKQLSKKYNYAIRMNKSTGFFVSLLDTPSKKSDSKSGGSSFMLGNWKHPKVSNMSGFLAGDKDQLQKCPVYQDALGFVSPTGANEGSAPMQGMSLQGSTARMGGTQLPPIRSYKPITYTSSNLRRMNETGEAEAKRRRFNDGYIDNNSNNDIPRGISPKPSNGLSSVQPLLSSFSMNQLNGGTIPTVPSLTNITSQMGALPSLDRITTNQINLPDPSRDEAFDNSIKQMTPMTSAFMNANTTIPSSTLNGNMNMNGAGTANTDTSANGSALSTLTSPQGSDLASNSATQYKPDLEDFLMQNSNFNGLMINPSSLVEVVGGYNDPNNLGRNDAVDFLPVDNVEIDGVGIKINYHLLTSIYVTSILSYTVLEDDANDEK
row,Sequence,PBM E-score
1,ATGAAGGC,-0.0409
2,CTTAACCA,-0.28
3,TAAACGAA,-0.0006
4,TATTAACA,0.0726
5,AGAAGTGG,-0.0623
6,CACGATGG,-0.207
7,AATGCGAG,-0.12
8,AGTCGGTG,0.156
9,GCACCTAA,-0.0548
10,AAGGTAAA,-0.119
11,CGCGTCGC,-0.0882
12,ACCATTAT,-0.0869
13,TGACATAA,-0.0779
14,AACAATCT,-0.133
15,ACCTAACT,0.0611
16,AGGTGAAC,-0.12
17,GAATCCGA,0.307
18,GATGTGGA,0.14
19,CTTCGTAC,-0.105
20,CCTCAACG,-0.133
21,GACCCCCA,-0.129
22,ATCATTCC,0.216
23,CTACAAAC,-0.247
24,AATCTCGC,0.0134
25,CAGCATTA,-0.0607

row,Sequence,PBM E-score
1,AAGCACAA,-0.193
2,CTAGCCAG,-0.186
3,GGCTATAC,0.059
4,AACTTTTG,-0.0532
5,GCAATTAA,0.227
6,AAGGAGAG,-0.277
7,CAAACATA,-0.255
8,ATGTTCGG,0.255
9,ACGTGATC,-0.0584
10,CTATACTA,-0.0572
11,AGACCAAA,-0.0471
12,AACAGTTG,-0.0951
13,ATTAGCGC,0.0834
14,ACCCGCCT,-0.0282
15,AAACGTAG,-0.24
16,AAGGACTC,0.0381
17,ACCTTTTG,0.00851
18,CTCCAGTC,0.00384
19,CGGAAACG,0.254
20,AGTGAGGG,-0.173
21,ACGGCATA,-0.0591
22,ATCCACTC,0.0225
23,TCGAGCCA,-0.186
24,ACAAATTG,-0.076
25,ATATCCGG,0.452

row,Sequence,PBM E-score
1,CCTGGTTA,-0.219
2,TCTCAGCA,-0.326
3,GCTATCAC,-0.0699
4,GTACGCGA,-0.225
5,TGGCCACA,-0.0517
6,AGGATGCA,-0.194
7,ATCCGTTA,0.409
8,AGTAATCA,0.0446
9,CAAAGACA,0.00289
10,ACGTCCTA,-0.0197
11,GAACGCAC,-0.0629
12,TATTCGGA,0.37
13,GAACCGGA,0.382
14,CGACCGAC,0.301
15,TGGGCGAA,-0.0412
16,CGCTGGGC,0.104
17,ACAAATAA,0.0132
18,CCACTCGC,0.0299
19,TACGCACA,-0.138
20,CAGTCGGG,0.252
21,AAAGCTAA,-0.123
22,GGACCTGA,0.0872
23,ATGCAGGG,-0.275
24,CGATCGCA,0.0453
25,AGGTCCGC,0.33

row,Sequence,PBM E-score
1,ATTCAGGG,-0.062
2,CGCATTGA,0.117
3,CGGATGAC,0.233
4,CTCTGAAC,-0.171
5,CGTATTAC,0.17
6,GACCCTAA,-0.0254
7,GAGTTTAA,0.0474
8,CGCTTGAC,-0.0591
9,AGGGGGAA,-0.304
10,AATCTAGT,0.08
11,ACTTCTTC,-0.125
12,TCAGAAAA,-0.316
13,CCCCTCTA,-0.0873
14,CCTGCTGA,-0.165
15,AAGGTCAC,-0.184
16,AACTACAG,0.0529
17,GAGCAAGC,-0.0766
18,TACGGTGA,0.0448
19,GCCAGGGC,-0.0132
20,AAGGACTA,-0.253
21,CTCTGCCC,-0.0938
22,AGCGGGCC,0.166
23,CGCCCTCC,0.0182
24,CCGAACAA,0.349
25,AAGGTTGA,-0.109

row,Sequence,PBM E-score
1,CTCAGCAG,-0.265
2,CGTTCACA,0.00621
3,CACCAGGA,-0.0507
4,CCCACTCG,0.0808
5,ATTAGTTC,0.0975
6,ACCTTTCC,0.231
7,CGAGGGGC,-0.123
8,CGCAGGAC,-0.15
9,CATATATG,-0.177
10,TAGGGCCA,-0.218
11,AAAAGTTG,-0.181
12,TAGGCTGA,-0.232
13,CGCCAATC,-0.0573
14,CAAACTCA,-0.128
15,ACCGTCAG,-0.057
16,TATGTTAA,-0.102
17,GGCCCTGA,-0.0873
18,CGCGACTA,0.197
19,AATGTCAT,-0.0552
20,AAAAGACT,-0.259
21,GACGAGAC,0.0457
22,CGCTCTAA,0.0174
23,ATACAGCA,-0.0098
24,TACTTGGA,-0.201
25,GTGACGGA,0.214

row,Sequence,PBM E-score
1,CAGCCGGG,0.2
2,ATCGGACG,0.422
3,GGTGAAGA,-0.0724
4,ACTAGCGG,0.143
5,CAAGGAAA,-0.0196
6,TAGAGTCA,-0.216
7,ATGCTCCC,-0.12
8,GTTTTCCA,-0.113
9,ATGCCCAT,-0.326
10,ACTGCACA,-0.215
11,CATCGTCG,-0.0546
12,CGAAGACC,0.126
13,AGTCGCCA,-0.255
14,CTCTTAAG,0.00808
15,ATCCCCGG,0.426
16,CTTTGAGC,-0.126
17,ATCCTGCG,-0.0516
18,TCCTTCCA,-0.208
19,CATTATTC,0.13
20,GGGAAGAA,-0.0354
21,ACACAAGG,-0.25
22,ATAGGTCG,0.0778
23,AGTTAATA,0.068
24,AGACAGCT,-0.21
25,CTCACCGC,-0.173

row,Sequence,PBM E-score
1,GCACCCGC,0.159
2,AGGGTGAT,-0.15
3,CGAATCGC,0.104
4,ACTGCACT,-0.141
5,CGCAAAAC,0.0733
6,CTTGAGAC,0.00213
7,CATGACCG,0.153
8,CACGAATG,-0.199
9,ACGCCTTC,-0.0458
10,AGACCTCT,-0.208
11,ATAGGTAA,-0.106
12,CTCATAAC,-0.0544
13,ATGACAAT,-0.168
14,ACCGGCGT,0.282
15,TCGCTACA,-0.235
16,ATGAATGC,-0.0559
17,CCACCAAC,0.102
18,TAAAGACA,-0.196
19,CGCCTCTC,-0.257
20,GAATGCTC,-0.05
21,CAGGCTGA,-0.18
22,CCATAGGC,0.0453
